# Assay results reported in article PMC12136788.
# This is one part of the list.
# B1: chr3:48658964:48659065:-|CDS|ENSG00000008300|msi1|FALSE|unique (ssRNA)
# RNA: GGGAGUUCUACAGUCCGACGAUCCGAUGUCUCCGACCACCUCUUCUACUCCUUUGAGCGUGGCAAUGAGCUGCAGCUGCUGGUAGUCAACCAGACCAGUGGGGAGCUGCGACUCAGCCGAAAGCUAGACAAUAACCGCCCACUCAACAGAGGAUUGAGCAUCA
# B2: chr1:17826356:17826472:+|CDS|ENSG00000117148|unk|total|mutant (ssRNA)
# RNA: GGGAGUUCUACAGUCCGACGAUCAGGGAGCUGAUGGGGGAUCACGUCUCCUCCACCAAGGCCACAGUCUGGGAGGGUUCCAACCGAAACUUCCGUGUCUGGCCCGGAGCGUCCGUGGUGGCUCACCUUUCUACCUACCAGUCUCAACAGAGGAUUGAGCAUCA
# B3: chr7:92086252:92086353:+|CDS|ENSG00000127914|msi1|total|mutant (ssRNA)
# RNA: GGGAGUUCUACAGUCCGACGAUCUCAUGAGAGCUUCUCAGACUGGCGAGGUGAACUACUGCUUGCCCUUCAACAAGUUUUCUCCGAAGAGCGCCGUGUUUUACCCGCAGCAUUUCGGACGGAGCUGACAGCUCCCGGUACUACCAACAGAGGAUUGAGCAUCA
# B4: chrX:71300841:71300885:+|3pUTR|ENSG00000147140|msi1_unk|total|mutant (ssRNA)
# RNA: GGGAGUUCUACAGUCCGACGAUCCCCCAUAUAUUACCCCUUCAUGUCCUAAAGAAGACAUUUUCUCUCCGAGAUUUUCAUUUCCGUGUAUCUUUAAAAAAAAAUCUUGUGUUAACUUGCCUCCAUCUUUUUCUUGGGUGAGGACAACAGAGGAUUGAGCAUCA
# B5: chr3:15667380:15667481:-|3pUTR|ENSG00000206560|msi1|FALSE|bound_elsewhere (ssRNA)
# RNA: GGGAGUUCUACAGUCCGACGAUCUAUACAUAAAAGAUGACAUCUGAAAUAUCUGAUGUGUAUUAUAAUACCAGCUUCUGCUCUAGAACUACUUUGGGUGAAAUGGUGGUAAUAGCAAAUGACCUCCUUUAACAAGACACUCAUCAACAGAGGAUUGAGCAUCA
# B6: chr2:42328916:42329027:+|CDS|ENSG00000143924|unk|total|mutant (ssRNA)
# RNA: GGGAGUUCUACAGUCCGACGAUCAGAAGGAUCUGAUGGGACAGAUAUCAAUGCACUGGUGCGAUCCCACAACCGAAAGGUGACCGCUGUUGCCGAUGACUUUUGUAAAGUCCAUCUGUUUCAGUAUCCCUGCUCCAAAGCAAACAACAGAGGAUUGAGCAUCA
# B7: chr6:132743869:132744491:-|three_prime_utr|ENSG00000112303|control|control|control (ssRNA)
# RNA: GGGAGUUCUACAGUCCGACGAUCAUGUGGGACCAGCAAUUCAGCAAUAACUUACCUGCUAAUAUUCAUAUUAUUAAUGAUCAUAGCUUUGCAAAAUAUUGUAAUGUUAUAGGGCGUCUCUUUAUCACUCAGCUUCUGCAUCAUCAACAGAGGAUUGAGCAUCA
# B8: chr5:103029089:103029184:+|3pUTR|ENSG00000145730|msi1_unk|FALSE|overlapping (ssRNA)
# RNA: GGGAGUUCUACAGUCCGACGAUCAACCAAGCUUUGAUUUAGAUUGAGUAAGAUUUACCCAGAAUGUCAGAUUCCUUUCCCUUUAGCACGUUUAAAGUUCUGUGUAUUUAAUUGUAAACUGUACUAGUCUGUGUGGGACUGUACCAACAGAGGAUUGAGCAUCA
# B9: ENSG00000070961:be:win_1201|CDS|ENSG00000070961|bound_else_gene|NA|bound_elsewhere_windowed (ssRNA)
# RNA: GGGAGUUCUACAGUCCGACGAUCAAAAGACCAUGGCUUGCUGAGUGCACACCAAUUUAUAUACAAUACUUUGUGAAGUUCUUCAUUAUUGGAGUUACAGUUUUAGUGGUCGCAGUGCCAGAAGGUCUUCCACUUGCAGUCACGCAACAGAGGAUUGAGCAUCA
# B10: chr2:45005181:45006169:-|three_prime_utr|ENSG00000170577|control|control|control (ssRNA)
# RNA: GGGAGUUCUACAGUCCGACGAUCCAGGGGCGCCCCGCCCCUGCGGCCCCACCAGGUACUGAAAGACCCGCAGGCUGAGCGGGUAGAACAGCCGGGUAGGGCAGAUAGCUGUCUAUGUUGGUUCUUGUUUGGGAUUUAUUUUCACAACAGAGGAUUGAGCAUCA
# B11: chr13:108210595:108210700:-|CDS|ENSG00000174405|unk|FALSE|unique (ssRNA)
# RNA: GGGAGUUCUACAGUCCGACGAUCUCAGCACUUGAGCAAAAGUGGCUUAUACGGAUGAUCAUAAAGGAUUUAAAGCUUGGUGUUAGUCAGCAAACUAUCUUUUCUGUUUUUCAUAAUGAUGCUGCUGAGUUGCAUAAUGUCACUCAACAGAGGAUUGAGCAUCA
# B12: ENSG00000168556:stop:overlap|stop_codon|ENSG00000168556|stop_codon|NA|stop_codon (ssRNA)
# RNA: GGGAGUUCUACAGUCCGACGAUCAUAAUGAGAAAACAAUGGACAAAAGUACUGAAAAGACAAAAAAGGAUAGAAGAUCGAGGUAGUAAAGGCCAUCCACAUUUUAAAGGGUUAUUUGUCUUUUAUAUAAUUCGUUUGCUUUCACAACAGAGGAUUGAGCAUCA
# B13: chr12:2849045:2849230:-|three_prime_utr|ENSG00000283297|control|control|control (ssRNA)
# RNA: GGGAGUUCUACAGUCCGACGAUCCCCAGAGCCCCAGGCUCCAGUGUUCUCAAUCAAUGCUCCUUCAGCAAGAGGCCCUGGGGUAGCAAAAGGACUCUGGCUUCUGCAGAACAGCCUCUCCACCAUCCUCCCAGCCUCAAGCCACAACAGAGGAUUGAGCAUCA
# B14: chr16:46660370:46660459:-|3pUTR|ENSG00000069329|msi1_unk|FALSE|overlapping (ssRNA)
# RNA: GGGAGUUCUACAGUCCGACGAUCAAAAGGAAAUAGCUCACCAUACUCCUUUCCAUGUACAUCCAGUGAGGGUUUUAUUACGCUAGGUUUCCCUUCCAUAGAUUGUGCCUUUCAGAAAUGCUGAGGUAGGUUUCCCAUUUCUUACAACAGAGGAUUGAGCAUCA
# B15: chr11:95129132:95129233:+|CDS|ENSG00000149218|msi1|total|mutant (ssRNA)
# RNA: GGGAGUUCUACAGUCCGACGAUCAAUCCUGAAGAACAUUGUCUAUUUCCUGUGGUGUGUUACCAAGCAGGUGAUUAAUGGCACCGAAAGUUGCCUUUACCGCCUGGGCUCAGCCACCAUCUCAUACUUCAUGGCCAUUGGGGACAACAGAGGAUUGAGCAUCA
# B16: chr5:72207927:72208036:+|3pUTR|ENSG00000131711|msi1_unk|total|mutant (ssRNA)
# RNA: GGGAGUUCUACAGUCCGACGAUCUUUUUUUUUUUUUUUUUUUGCUAUGGGAUUUAAUGGGAAAAAUAUGUAAAAACUGUCACCCGUCAGCUGGCUCUUUUUCCUAUGAAAUCUAUCAGUACCUUUCUCCAUCCGUUGUUCUCACAACAGAGGAUUGAGCAUCA
# B17: chr12:64147824:64147925:+|3pUTR|ENSG00000196935|unk|FALSE|unique (ssRNA)
# RNA: GGGAGUUCUACAGUCCGACGAUCCAUCUCUGUGGUGUCUUUGUUCCUUUCCUUUCAUUCAUCACUACUUUCUCCUUGACAGCUAGCUUGCAUUAAAUAAUGUGAAACUUUUACCUUUAAAAUAUUUUUUUAUCUCACUUUCAUCAACAGAGGAUUGAGCAUCA
# B18: chrX:40074726:40074839:-|CDS|ENSG00000183337|unk|total|mutant (ssRNA)
# RNA: GGGAGUUCUACAGUCCGACGAUCGCGCUGGGCUUGGACAGGCCUGCCAGCGACAAACAGAGCCCUCUCAACAUCAAUGGUGCCCGUUAUCUGCGGCUGCCCUGGGUCAAUCCUUACAUGGAGGGUGCCACGCCAGCCAUCUACCAACAGAGGAUUGAGCAUCA
# B19: chrX:48915045:48915146:-|CDS|ENSG00000102096|unk|total|mutant (ssRNA)
# RNA: GGGAGUUCUACAGUCCGACGAUCCCAGCACUGCCAUUCCCGUGGAGUUGUCCAUCGUGACAUCAAGGAUGAGAACAUCCUGACCGACCUACGCCGUGGCUGUGCCAAACUCAUUGAUUUUGGUUCUGGUGCCCUGCUUCAUGACAACAGAGGAUUGAGCAUCA
# B20: chr2:218264180:218264222:-|3pUTR|ENSG00000127837|msi1_unk|total|mutant (ssRNA)
# RNA: GGGAGUUCUACAGUCCGACGAUCUUGAGGUUCCCGUUCUUUCCCUUCCCAAGUCUCUGGGGGUGGAAAGGAGGAAGAGAUACCCGUUAAAGAUUUUAAAAAUGUAAAUAAAAUAUACUUCCCAGAGACAGAGUCUGUGUGGAUCAACAGAGGAUUGAGCAUCA
# B21: chr1:156742365:156742464:-|3pUTR|ENSG00000143321|msi1_unk|FALSE|overlapping (ssRNA)
# RNA: GGGAGUUCUACAGUCCGACGAUCAUUUCUGAGGUGCACUGGGAGGCUCCCCUUCUAUUUGGGGCUUGAUGACUUUCUUUUUGUAGCUGGGGCUUUGAUGUUCCUUCCAGUGUCAUUUCUCAUCCACAUACCCUGACCUGGCCCCAACAGAGGAUUGAGCAUCA
# B22: chr3:121436121:121436275:-|CDS|ENSG00000051341|control|control|control (ssRNA)
# RNA: GGGAGUUCUACAGUCCGACGAUCAGUCCAAGGAUCAGCAGCUGAUAUUGUCAAAAUAGCCACAGUUAACAUUCAGAAGCAAUUAGAGACCUUCCACUCAACCUUCAAAUCCCAUGGUCAUCGAGAGGGUAUGCUCCAAAGUGACAACAGAGGAUUGAGCAUCA
# Target: MSI1 full-length (mouse, UniProt Q61474 1-362)
# Assay: nsRBNS (natural sequence RNA bind-n-seq); RBNS binding buffer (assumed for nsRBNS): 25 mM Tris pH 7.5, 150 mM KCl, 3 mM MgCl2, 0.01% Triton X-100, 500 ug/ml BSA, 20 U/ml SUPERase-In, 4 C; UNK is unkempt and MSI1 is Musashi-1; names of the RNAs are library labels; protein concentration not given here; high values mean tight binding
# Sequence of UniProt Q61474 (Q61474 whole entry): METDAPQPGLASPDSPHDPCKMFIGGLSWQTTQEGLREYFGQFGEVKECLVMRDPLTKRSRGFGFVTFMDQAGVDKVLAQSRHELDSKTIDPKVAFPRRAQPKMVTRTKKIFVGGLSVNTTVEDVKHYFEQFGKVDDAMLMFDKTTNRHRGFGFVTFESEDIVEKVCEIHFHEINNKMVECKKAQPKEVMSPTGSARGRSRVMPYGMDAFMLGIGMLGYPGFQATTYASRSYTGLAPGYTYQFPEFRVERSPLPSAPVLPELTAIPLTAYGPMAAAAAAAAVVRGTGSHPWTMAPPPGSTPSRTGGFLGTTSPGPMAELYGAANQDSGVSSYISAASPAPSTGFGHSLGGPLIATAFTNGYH
row,Binder,binding signal
1,B1,0.506 enrichment R
2,B2,0.51 enrichment R
3,B3,0.292 enrichment R
4,B4,0.906 enrichment R
5,B5,0.546 enrichment R
6,B6,0.248 enrichment R
7,B7,1.18 enrichment R
8,B8,2.15 enrichment R
9,B9,1.51 enrichment R
10,B10,0.327 enrichment R
11,B11,0.244 enrichment R
12,B12,7.82 enrichment R
13,B13,0.456 enrichment R
14,B14,1.15 enrichment R
15,B15,0.277 enrichment R
16,B16,2.25 enrichment R
17,B17,7.22 enrichment R
18,B18,0.345 enrichment R
19,B19,0.357 enrichment R
20,B20,0.654 enrichment R
21,B21,0.422 enrichment R
22,B22,1.34 enrichment R
